Results published in PubChem BioAssay AID1345082 (National Center for Advancing Translational Sciences (NCATS), 2018).
In all, about 94,000 compounds went through this assay and about 4,000 (4.3%) were called active. The inconclusive results got no clear call from the source; some entries with a clear call stand among them for comparison. Calls come from the whole dose curve; as a rule, active = well fitted inhibition curve with a large enough effect; inconclusive = small, poorly fitted or top-dose-only effect; inactive = no such curve, though single readings can be large or run the other way. Potencies of inconclusive entries are doubtful fits and often do not repeat.

Assay: Cytotoxic Profiling in NIH 3T3 Cell Line of Diverse Libraries Using Quantitative High-Throughput Screening; note: nearly all actives have a fitted effect of over 55% in size
Details: NIH 3T3 viability, CellTiter-Glo ATP luminescence, 48-72 h; activity change, negative = cytotoxicity: at 96.7 µM (top of the series); series mostly up to 96.7 µM
How it was run: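 Cells were seeded at 400 per well, treated with pin-transferred compound, and kept 48 or 72 hr at 37 °C before CellTiter-Glo addition and luminescence imaging of cellular ATP.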
% is set by controls: 0 for no effect and ±100 for the full control effect; potency is the fitted concentration of half-maximal effect; tags give direction and shape of the fitted curve.

Row | SMILES | Potency | activity change, negative = cytotoxicity | outcome
1 | Cc1ccc(C(=O)N2CCCCC2C(=O)Nc2cccc(-c3nnc(C)s3)c2)cn1 (stereo not given) | inconclusive: 44.7 µM [inhibitor, partial curve] | – | –
2 | Cc1cc(NC(=O)c2ccc3c(c2)N(C)C2CCCCCN2C3=O)ccc1Cl (stereo not given) | inconclusive: 44.7 µM [inhibitor, partial curve, poor fit] | – | –
3 | Cn1ncc2c(C(=O)NCCc3ccc(F)cc3)cc(-c3ccccc3F)nc21 | – | inactive: -28.7% | –
4 | O=C(NC1CCN(C(=O)c2ccc(-c3cccs3)cc2)CC1)c1ccccc1Cl | inconclusive: 50.1 µM [inhibitor, partial curve, poor fit] | – | –
5 | Cc1noc(C)c1CNC(=O)c1cc2c(s1)CCN(C(=O)c1ccc(Cl)cc1)C2 | inconclusive: 39.8 µM [inhibitor, partial curve] | – | –
6 | CN1C(=O)C2(CCN(C(=O)c3cccc(Br)c3)C2)c2ccccc21 (stereo not given) | inconclusive: 44.7 µM [inhibitor, partial curve, poor fit] | – | –
7 | Cc1noc(C2CC3(CCN(C(=O)c4n[nH]c5ccccc45)CC3)CN2C)n1 (stereo not given) | – | inactive: 0.0192% | –
8 | O=C([C@@H]1C[C@H](Oc2ccccc2)CN1C(=O)NC1CCCCC1)N1CCCC1 | inconclusive: 22.4 µM [inhibitor, partial curve] | – | –
9 | Cn1ncc2c(C(=O)NCc3ccc(F)cc3)cc(-c3ccccc3F)nc21 | inconclusive: 11.2 µM [inhibitor, full curve, poor fit] | – | –
10 | CCOC(=O)C1CCN(C(=O)c2cc(-c3ccc(OC)cc3)nc3c2cnn3C)CC1 | inconclusive: 50.1 µM [inhibitor, partial curve, poor fit] | – | –
11 | C#CCNC(=O)c1nc(C(C)(C)C)c2cnccn12 | inconclusive: 56.2 µM [inhibitor, partial curve, poor fit] | – | –
12 | Cn1ncc2c(C(=O)N3CCC(c4ccccc4)CC3)cc(-c3cccc(F)c3)nc21 | inconclusive: 50.1 µM [inhibitor, partial curve, poor fit] | – | –
13 | Cc1ccc([S+](=O)([O-])N2CC(=O)N(Cc3ccc(Cl)cc3)CC(O)C2)cc1 (stereo not given) | inconclusive: 50.1 µM [inhibitor, partial curve, poor fit] | – | –
14 | O=C(c1cc2ccccc2[nH]1)N1CCNc2cnc(Nc3ccccc3)nc2C1 | inconclusive: 56.2 µM [inhibitor, partial curve, poor fit] | – | –
15 | O=C(Nc1cccc(F)c1)c1cc(-c2ccc[nH]2)n[nH]1 | – | inactive: -10.9% | –
16 | C[S+](=O)([O-])c1ccc(-c2cc(C(=O)N3CCCC3)nn3cccc23)cc1 | inconclusive: 39.8 µM [inhibitor, partial curve, poor fit] | – | –
17 | Cc1cc(NC(=O)c2ccc3c(c2)N(C)C2CCCCCN2C3=O)ccc1F (stereo not given) | inconclusive: 70.8 µM [inhibitor, partial curve, poor fit] | – | –
18 | CC(C)NC(=O)c1cc(-c2ccc(Cl)cc2Cl)c2nncn2n1 | inconclusive: 79.4 µM [inhibitor, partial curve] | – | –
19 | COCCOCC(=O)N1CCC[C@H](n2c(=O)n(Cc3ccccc3)c3cccnc32)C1 | inconclusive: 44.7 µM [inhibitor, partial curve, poor fit] | – | –
20 | COc1ccc(-c2noc(-c3nnn4c3COC(c3ccc(C)cc3C)C4)n2)c(OC)c1 (stereo not given) | – | inactive: -19.8% | –

Row | SMILES | Potency | activity change, negative = cytotoxicity | outcome
21 | CN(Cc1cccc(C(F)(F)F)c1)Cc1ccccc1OCC(=O)O | – | inactive: -13.7% | –
22 | O=C(c1nc2c(o1)CCN(Cc1cccc(Cl)c1)CC2)N1CCOCC1 | inconclusive: 56.2 µM [inhibitor, partial curve, poor fit] | – | –
23 | COc1ccc(-c2noc(CC3CCN(C(=O)COc4ccc(C)cc4)CC3)n2)cc1 | inconclusive: 39.8 µM [inhibitor, partial curve, poor fit] | – | –
24 | c1ccc(-c2nnc3ccc(NC4CC4)nn23)nc1 | inconclusive: 112 µM [inhibitor, partial curve, poor fit] | – | –
25 | O=C1c2c(nc(COc3cccc(Cl)c3)n2Cc2ccccc2)NCCN1CC1CC1 | inconclusive: 56.2 µM [inhibitor, partial curve, poor fit] | – | –
26 | O=C(NCc1ccc(F)c(F)c1)c1ccc2nnc(-c3ccoc3)n2c1 | inconclusive: 44.7 µM [inhibitor, partial curve, poor fit] | – | –
27 | CNC(=O)CCn1ncc2cc(OCc3ccccc3-c3cnn(C)c3)ccc21 | inconclusive: 63.1 µM [inhibitor, partial curve, poor fit] | – | –
28 | COc1ccc(C(=O)N2C[C@@H]3C[C@H](C2)c2c(NS(=O)(=O)c4ccccc4)ccc(=O)n2C3)cc1 | – | inactive: 1.78% | –
29 | O=C(CC[C@H]1NC(=O)c2ccccc2NC1=O)Nc1ncn[nH]1 | – | – | inactive
30 | O=C(O)COc1ccc(-c2nccc3c2C(=O)N(Cc2c[nH]c4ccccc24)CC(COc2ccc(F)c(F)c2)O3)cc1 (stereo not given) | inconclusive: 70.8 µM [inhibitor, partial curve, poor fit] | – | –
31 | CCN1c2cc(C(=O)NC3CCCCCC3)ccc2C(=O)N2CCCCCC21 (stereo not given) | inconclusive: 50.1 µM [inhibitor, partial curve, poor fit] | – | –
32 | COc1ccc(Nc2cnc3ccc(-c4cccc(CO)c4)nn23)cc1 | inconclusive: 44.7 µM [inhibitor, full curve, poor fit] | – | –
33 | Cc1ccc(-n2nc(C)c([C@@H]3C=C[C@@H](NC(=O)Nc4ccc(Cl)cc4)C3)c2C)cc1Cl | active: 28.2 µM | – | –
34 | O=C(NCc1ccccc1F)c1cc(Br)cn2ccnc12 | – | inactive: -16.5% | –
35 | Cn1c(CNC(=O)C2CCN(C(=O)N3CC4CC(C3)[C@H]3CCCC(=O)N3C4)CC2)nc2ccccc21 (stereo not given in full) | inconclusive: 70.8 µM [inhibitor, single point] | – | –
36 | CSc1ccc(C(=O)N2CC(=O)N(Cc3cccc(F)c3)CC(O)C2)cc1 (stereo not given) | inconclusive: 50.1 µM [inhibitor, partial curve, poor fit] | – | –
37 | O=C(c1cc(F)ccc1F)N1CCC(n2cc(-c3nc(-c4ccccc4)no3)nn2)C1 (stereo not given) | inconclusive: 11.2 µM [inhibitor, full curve] | – | –
38 | O=C(NCCNC(=O)c1cccc(-c2ccsc2)c1)Nc1ccccc1 | inconclusive: 50.1 µM [inhibitor, partial curve, poor fit] | – | –
39 | c1ccc(-c2ccccc2Nc2cnc3ccc(-n4ccnc4)nn23)cc1 | active: 25.1 µM | – | –
40 | CCCc1nc(C(=O)N2CCN(c3nc4ccccc4s3)CC2)cs1 | inconclusive: 44.7 µM [inhibitor, partial curve, poor fit] | – | –

Row | SMILES | Potency | activity change, negative = cytotoxicity | outcome
41 | COCCNC(=O)CN1CN(c2ccccc2)C2(CCN(C(=O)NC3CCCCC3)CC2)C1=O | inconclusive: 79.4 µM [inhibitor, partial curve, poor fit] | – | –
42 | COC(=O)[C@@H]1Cc2ncn(Cc3ccc(Cl)cc3)c2CN1C(=O)c1ccc(C(F)(F)F)cc1 | inconclusive: 79.4 µM [inhibitor, partial curve] | – | –
43 | Cn1ccnc1C(=O)N1CCC(N2C(=O)C3(CCCCC3)C2c2ccccc2)CC1 (stereo not given) | – | inactive: -6.34% | –
44 | CN1CCC(Oc2ccc(NC(=O)CCCc3ccccc3)cn2)CC1 | inconclusive: 44.7 µM [inhibitor, partial curve, poor fit] | – | –
45 | O=S(=O)(c1cccs1)N1CCC(n2cnnc2-c2ccccc2)CC1 | – | inactive: -5.72% | –
46 | O=C1CN(c2ccc(C(=O)N3C[C@@H](C(=O)O)[C@H](C4CC4)C3)cc2)C(=O)N1 | – | inactive: -11.6% | –
47 | Cc1cc(=O)n(CC(=O)Nc2cccc(F)c2)c(N2CCc3ccccc3C2)n1 | inconclusive: 50.1 µM [inhibitor, partial curve, poor fit] | – | –
48 | O=C(C[C@@H]1CCNC[C@@H]1Cc1cc(-c2ccccc2)on1)N1CCC(Cc2ccccc2)CC1 | active: 28.2 µM | – | –
49 | Cc1nn2c(c1-c1ccccc1Oc1ccccc1)N(C(=O)COc1ccccc1)CCC2 | inconclusive: 35.5 µM [inhibitor, partial curve, poor fit] | – | –
50 | COC(=O)CNC(=O)C1CCCN(c2nccc(Nc3ccc(OC)cc3)n2)C1 (stereo not given) | inconclusive: 70.8 µM [inhibitor, single point] | – | –
51 | Cc1noc(-c2ccccc2Cl)c1C(=O)NCCc1cccs1 | inconclusive: 50.1 µM [inhibitor, partial curve, poor fit] | – | –
52 | O=[N+]([O-])c1cccc(-c2noc([C@@H]3C[C@@H](O)CN3CC3CCCCC3)n2)c1 | inconclusive: 100 µM [inhibitor, partial curve, poor fit] | – | –
53 | O=C(N1CCC(c2nc(-c3ccccc3)no2)C1)C1(c2ccccc2)CC1 (stereo not given) | inconclusive: 39.8 µM [inhibitor, partial curve] | – | –
54 | O=c1[nH]c(C2CCCN(Cc3ccc(Cl)cc3)C2)nc2ccc(F)cc12 (stereo not given) | – | inactive: -25.2% | –
55 | O=C(NCc1ccccc1)c1noc(-c2ccc3c(c2)OCO3)n1 | inconclusive: 39.8 µM [inhibitor, partial curve] | – | –
56 | O=C(NCc1cccc(C(F)(F)F)c1)C1CN(C2CCCC2)C(=O)N1 (stereo not given) | inconclusive: 89.1 µM [inhibitor, partial curve, poor fit] | – | –
57 | CSc1ccc(-c2cccc(C(=O)NCCNC(=O)C3CC3)c2)cc1 | inconclusive: 44.7 µM [inhibitor, partial curve, poor fit] | – | –
58 | CC(=O)N1CC2(CCN(C(=O)c3ccc(Cl)cc3)CC2)Cc2ccccc21 | active: 10 µM | – | –
59 | O=C(N1CCC(n2cc(-c3nc(-c4ccccc4)no3)nn2)CC1)C1(c2ccccc2)CC1 | inconclusive: 31.6 µM [inhibitor, partial curve, poor fit] | – | –
60 | COc1cccc([S+](=O)([O-])N2CCC3(CC2)C(=O)Nc2ccccc23)c1 | inconclusive: 22.4 µM [inhibitor, full curve, poor fit] | – | –
